Test results published in ChEMBL document CHEMBL4888484, “Replenishing the malaria drug discovery pipeline: Screening and hit evaluation of the MMV Hit Generation Library 1 (HGL1) against asexual blood stage Plasmodium falciparum ,using a nano luciferase reporter read-out” (2022).
In all, about 150,000 compounds went through this assay and about 540 (0.36%) showed an effect of 50% or more. This is one part of the list.

These compounds were tested on Plasmodium falciparum (assay: Primary screen in NF54 nanoGlo assay, in single point, at 2uM, 72h; a lower Z score goes with more inhibition). Details: timepoint 72 hour.
Type: functional, Erythrocyte

Compound	% Inhibition [%]	Z score
CNC(=O)c1cccnc1N1C[C@@H]2COc3ccccc3C[C@]2(CO)C1	-6	0.79
Cc1cc(Cl)ccc1NC(=O)c1c(N2CCCC2=O)c2cc(F)ccc2n1C	6	-1.02
Cc1nc(CC(=O)N2CCc3[nH]cnc3[C@H]2c2cccnc2)cs1	-1	0.13
O=C(CCc1ccccc1)Nn1cnc2ccccc2c1=O	-9	1.15
COCC1(CNC(=O)c2cc(O)cc(O)n2)CCC1	8	-1.09
COc1c(F)cc([C@@H]2C[C@H](NC(C)=O)C[C@H](C(C)C)O2)cc1Cl	1	-0.24
Cc1cccc(-n2c(=O)n(Cc3ccccc3)c(=O)c3c2ncn3Cc2ccccc2)c1	1	-0.24
COc1ccc(CCNc2nc(-c3ccc(F)cc3)c3c(N)n(-c4ccccc4Cl)nc3n2)cc1	-31	3.62
C[C@@H](CCc1cccn1C)Nc1ccccn1	-11	1.42
CC(C)(CNC(=O)Nc1nc(CS(C)(=O)=O)no1)C1CCCC1	-8	1.06
Cc1cc(Br)cnc1NCC(=O)NCC(F)(F)F	-13	2.36
O=C(Nc1ccc(N2CCCC2=O)cc1)[C@@H]1CC=CCC1	-7	0.62
CC(NC(=O)C(C)N1CCc2nn[nH]c2C1)c1ccc(F)cc1 (stereo not drawn)	-6	0.93
CCc1cc(CNC(=O)Cn2ncc(N3CCOCC3)cc2=O)on1	4	-0.48
CNS(=O)(=O)CCCn1nc(C(F)(F)F)ccc1=O	-14	1.59
Clc1cnn(Cc2cc(-c3ccccc3)on2)c1	1	-0.08
CCOc1cc2c3c(c1)[C@@H](C)CC(C)(C)N3C(=O)C2=O	14	-2.08
CCc1ccc2c(c1)[C@H]1OCCC[C@H]1C(c1ccc(OC)c(C)c1)N2 (stereo partly drawn)	-9	1.48
CCNC(=O)NC(=O)[C@H](C)N(C)Cc1cccs1	-12	1.72
CC(C)(C)CN1CC[C@H](c2nnc(-c3ccccc3)o2)C1	-9	1.68
CC(C)c1nnsc1CN(CCO)[C@H]1CS(=O)(=O)C[C@@H]1O	-9	1.75
c1cc2c(cc1-c1nc([C@H]3CCOC3)no1)CCO2	5	-0.9
O=C(CN1C(=O)NC2(CCCCCCC2)C1=O)c1ccc(Oc2ccccc2)cc1	-10	1.12
NC(=O)Cc1nc(-c2cncc(O)n2)n(CC(F)(F)F)n1	7	-1.26
Cn1cc(C2CCN(C3Cc4ccccc4C3O)C2)cn1 (stereo not drawn)	2	-0.36
Cc1occc1C(=O)NCC1(c2ccncc2)CCCCC1	-3	0.29
CC(C)C(=O)N1CC(c2noc([C@@H]3CCCN3CC3CC3)n2)C1	-5	0.63

Compound	% Inhibition [%]	Z score
Cc1cc(NC(=O)c2n[nH]c(=O)c3ccccc23)no1	-15	1.35
COCCC1(c2noc(C3CCOCC3)n2)CCN(Cc2c(C)noc2C)CC1	-8	1.03
Cc1cc(C(=O)N(C)[C@H]2CCCN(C(=O)CCc3cnn(C)c3)C2)n(C)n1	15	-1.89
O[C@@H](CNCC=Cc1ccco1)c1cc(Cl)c2c(c1)OCCO2	-29	4.15
O=S(=O)(c1ccc2c(c1)OCCO2)N1C2CCC1CC(=C1CC1)C2	12	-1.56
CC(C(=O)NCC(O)CN(C)C(=O)C(C)C1CC1)C1CC1 (stereo not drawn)	-10	1.89
CCOc1ncccc1C(=O)N1C[C@@H]2CC[C@H]1CN(S(=O)(=O)N(C)C)C2	-12	1.5
CC(C)c1nc(CS(=O)(=O)C[C@H](O)c2c(F)cccc2F)cs1	1	-0.19
CNC(=O)[C@@H](C)CN(C)c1nccc(OC)n1	-7	1.39
COCCN(CC(=O)N1N=C(c2cccn2C)C[C@H]1c1ccc(Cl)cc1)C(=O)c1ccccc1Cl	-18	1.61
Cc1cc(NC(=O)CN2CC(=O)NC[C@H]2c2ccccc2)n(C)n1	-2	0.27
CC1CC(C)C(C(=O)N(C)Cc2ncon2)O1 (stereo not drawn)	-7	0.67
O=C1NCCN1CC1CCN(C(=O)c2ccc3cccnn23)CC1	-17	2.26
CC1CCN(c2nc3c(c(Oc4ccc(F)cc4)n2)CN(Cc2ccsc2)CC3)CC1	-2	0.16
COCC[C@H]1CN(Cc2cc3cc(C)ccc3n2C)CCO1	3	-0.57
C[C@@H](NC(=O)N1CCN(CCOCCO)CC1)c1ccc(F)cc1	6	-0.85
COCCn1nnnc1[C@]1(N2CCOCC2)CCCN(C(=O)c2ccco2)C1	4	-0.55
O=C(COC[C@H]1CCCO1)Nc1ccnn1Cc1ccsc1	7	-0.92
NC(=O)c1cnc(NC(=O)C2CC2c2ccccc2)c(Cl)c1 (stereo not drawn)	-8	1.22
Cc1ccc(-c2nc(-c3ccc4nncn4c3)no2)s1	-20	3.37
O=C(NCC1CC1)[C@]1(F)CCCN(Cc2ccccc2)C1	-26	2.32
CCOCCn1nc(C)cc1C(=O)N1CCC[C@H]1c1nc(C(C)C)no1	-13	1.47
CN(C)S(=O)(=O)N1C[C@H]2CC[C@@H](C1)N(CCOCc1ccccc1)C2	-1	0.26
O=C(NCc1cn(-c2ccsc2)nn1)Nc1nc(C2CC2)cs1	6	-0.95
C[C@H](NC(=O)C#Cc1ccc2c(c1)OCO2)c1nccs1	4	-0.48
CCc1nn(C)c(Cl)c1CN1CCC[C@H](CS(C)(=O)=O)C1	-2	0.36
COc1ccc(CCN2C(=O)[C@H](CCC(=O)N3CCc4cc(OC)c(OC)cc4C3)N=C2O)cc1	-17	2.25
